Results as given in the supplement of paper PMC3334620.
Whole data set: some 33,000 sequences, median “E-score (-0.5 to 0.5)” near -0.054, cut for the highest 2% near 0.39. Some of the results follow.

The sequences below were run against Ylr278c (UniProt Q05854) (assay: PBM E-score (8-mer binding enrichment) (E-score (-0.5 to 0.5)); higher = stronger / more preferred TF binding; most listed sequences are background and not binding sites). Settings: protein concentration: 200 nM; construct: GST-DNA-binding domain.
Procedure, shortened: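 Yeast transcription factors, full-length or as DNA-binding domains, were expressed with a GST tag using PURExpress in vitro transcription/translation. At about 100-200 nM they were applied to universal all-10-mer Agilent arrays, double-stranded by primer extension on fresh or once-stripped slides. Fluorescent anti-GST detected bound protein, and masliner normalised the scans. E-scores for ungapped eight-base words, pooled with reverse complements, came from the Universal PBM Analysis Suite.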

| Sequence | PBM E-score |
| --- | --- |
| AAGCCTTC | -0.22 |
| CTGGACTC | -0.0592 |
| ACGAGCAC | -0.0719 |
| ACCTTCAA | -0.129 |
| CCATCTCA | -0.255 |
| CAAGTCGC | -0.218 |
| AGAAATTG | 0.096 |
| CTACTCTC | -0.0666 |
| CCATCGCA | -0.262 |
| GGCCTATA | -0.0565 |
| AATTTTAG | -0.218 |
| AGTGCGGC | 0.196 |
| ATACGCTC | 0.00427 |
| CGTTGGTC | -0.0089 |
| CCTTTCGC | 0.0666 |
| CACCGTAG | 0.0181 |
| ACTCCTAT | -0.0311 |
| CGCCCGCG | 0.263 |
| CGGGTACA | 0.0901 |
| AACAACTA | 0.0158 |
| TCCAGCGA | -0.135 |
| CGAGGAGC | -0.0106 |
| GCAACTAC | 0.0217 |
| CACGGGCC | 0.181 |
| CACGACTA | -0.321 |

| Sequence | PBM E-score |
| --- | --- |
| GCTAGCCA | -0.139 |
| GTTACCGA | 0.00688 |
| CTCTATGC | -0.109 |
| TAGAACAA | -0.174 |
| CGCGTATA | -0.0338 |
| CGGATTAA | 0.39 |
| GTCCGAAC | 0.401 |
| AGGGGCAC | -0.237 |
| CACAAACG | 0.141 |
| CCGTGGAC | 0.19 |
| AGTGGACA | 0.0408 |
| CGGGATAA | 0.309 |
| AGTTCAGG | -0.0538 |
| CACTAGAA | -0.0518 |
| CGAATTTC | 0.174 |
| CACCTCCG | 0.425 |
| ATCTAGCG | -0.113 |
| CCTTTGGC | -0.234 |
| CACGACAC | -0.0369 |
| CCACAAGA | -0.0304 |
| CCGGCGGC | 0.407 |
| ATAGCATG | -0.214 |
| GGATAAAA | 0.188 |
| AGACACAC | -0.257 |
| CGAACCCC | 0.316 |

| Sequence | PBM E-score |
| --- | --- |
| ATGTTGTC | -0.0406 |
| AGGTGCGC | -0.0861 |
| CCAACGAA | -0.123 |
| CTGAACCC | -0.0929 |
| AAGTAACC | -0.111 |
| GCGACAAC | -0.0599 |
| GTACTCCA | -0.182 |
| GAATTCTA | 0.00941 |
| GAAGTTCC | 0.125 |
| TAGACCGA | 0.0591 |
| CCTCATTC | -0.0761 |
| GCCTAATA | -0.126 |
| ATGCGTCA | -0.176 |
| ATCGTATG | -0.283 |
| CTATAAAA | -0.121 |
| AATGCGTC | -0.219 |
| CGGCTACC | 0.218 |
| CTGGCTCC | 0.101 |
| AGAGCCTC | -0.252 |
| GTTCCTTA | -0.151 |
| ACGGGAAG | -0.0803 |
| CAGAGTAA | -0.171 |
| CAGAGATA | -0.162 |
| TCATCGCA | -0.0812 |
| AGAGGCAG | -0.299 |

| Sequence | PBM E-score |
| --- | --- |
| AATAGTGA | -0.188 |
| AGGGAGTG | -0.316 |
| AGCACGTG | -0.266 |
| ACTAGCCC | 0.116 |
| AACTGTAT | -0.0073 |
| CCTCATAG | -0.196 |
| CCAGGAAG | -0.157 |
| GCTAGTAC | -0.203 |
| AGGCAACT | 0.0277 |
| TATCCTCA | -0.0486 |
| AAGGGACC | -0.164 |
| AACGAAAT | 0.0804 |
| ACAACACA | -0.262 |
| CAACCGAA | -0.0119 |
| GCGGGTAC | -0.00773 |
| ACGGTAAG | 0.101 |
| AGAATGGC | 0.175 |
| ACAGCCAT | -0.177 |
| AGTTCGAT | -0.104 |
| AATGGGGG | -0.254 |
| AAGAAAGC | -0.0825 |
| AACTCCGT | 0.486 |
| AAGAAATC | -0.0701 |
| CCCCGTGA | 0.152 |
| CGCAGGTC | -0.00274 |

| Sequence | PBM E-score |
| --- | --- |
| GAGAATAA | 0.0187 |
| AAACTAGC | -0.153 |
| GGATAAAC | 0.22 |
| AAAGCACA | -0.103 |
| GGTTACAA | -0.117 |
| AATACATA | -0.0847 |
| AACGGGCG | 0.0094 |
| AACCTGCA | -0.0893 |
| TATAAATA | 0.0789 |
| GGGTTTAC | 0.16 |
| ATACCTAA | -0.126 |
| ATACGCCG | 0.363 |
| AGCGAGTA | 0.154 |
| CTGAGACC | -0.187 |
| GATCTCAA | 0.077 |
| ACTGGCAC | -0.0817 |
| AGTGCCAA | -0.32 |
| GGATGGCC | -0.0999 |
| GCTCATGA | -0.202 |
| GAGGGGTA | -2e-05 |
| AGAGCGAA | 0.00444 |
| CATTAGAC | -0.134 |
| CTGGTCTC | -0.268 |
| GAACTGAC | 0.00651 |
| GCAACCAC | 0.00041 |

| Sequence | PBM E-score |
| --- | --- |
| ACCCATTG | -0.0372 |
| ACGTTGCC | -0.202 |
| CCACTAAA | -0.0539 |
| ACAACGCA | -0.0656 |
| AGTTGGAG | -0.0906 |
| CGCCTCAG | 0.0353 |
| ATTTGATC | 0.00681 |
| AATACCCC | 0.3 |
| CCTAGAAC | -0.0753 |
| CCTATCTA | -0.184 |
| AAAACCAG | -0.16 |
| ATGGAATA | 0.0454 |
| ATCCGTCG | 0.236 |
| TAATCCCA | -0.1 |
| GATTGGAC | -0.0691 |
| AGCAACAA | -0.0492 |
| ACGGTGAT | 0.0226 |
| CAACGCGC | 0.101 |
| AATATCTC | 0.0682 |
| ATATTGCG | 0.0799 |
| ACTCATTA | -0.0588 |
| ACAGAGCA | -0.0805 |
| GTCCTCGA | -0.178 |
| ACAGAGAT | -0.115 |
| CACGCACG | -0.0239 |

| Sequence | PBM E-score |
| --- | --- |
| ATTGGGTG | 0.0985 |
| ATTTTGCC | 0.0962 |
| CATCGTGG | -0.18 |
| ACCGTGGG | -0.138 |
| TGCAGTAA | -0.0162 |
| GTCCGGAA | 0.44 |
| ACTAGGCA | -0.197 |
| AGGTCGCA | 0.0752 |
| AGGAGGGA | -0.231 |
| GTTTCAAA | -0.133 |
| GACACCAC | 0.0102 |
| AGATAAAT | -0.0981 |
| ACGGCAGC | 0.0662 |
| CGTAGTGA | -0.147 |
| ACATACTC | -0.0476 |
| AATGTAGC | -0.00079 |
| GTCACTCA | 0.0412 |
| CAGGCGGA | 0.327 |
| TAAAGAGA | -0.0998 |
| ACTGCGTG | -0.32 |
| GCAATCTA | -0.0551 |
| GCAGCTCA | -0.0696 |
| CAGCGATC | 0.0651 |
| TGATAACA | -0.0719 |
| GGAACGCC | 0.265 |

| Sequence | PBM E-score |
| --- | --- |
| ACGGCCTG | 0.0277 |
| CCACCTGA | 0.0378 |
| AACACCGC | 0.27 |
| AAAATCAA | 0.0309 |
| ATCACTAC | -0.223 |
| TGTCTTAA | -0.0397 |
| AGTTCGGA | 0.391 |
| ATTTGCAA | -0.0483 |
| GTTTAATA | -0.158 |
| AAGCCGAA | 0.271 |
| ACTGACTA | -0.281 |
| ACCTCTAT | -0.176 |
| CCGTACCC | 0.13 |
| CGCCGCCA | 0.242 |
| AAAACCTA | -0.121 |
| AAGTAAAA | -0.0136 |
| AATCCAAG | -0.118 |
| TCCGGACA | 0.456 |
| TACCTATA | -0.276 |
| GCTCGTAA | -0.137 |
| GCCACTAA | -0.198 |
| ACTCGGCA | 0.191 |
| GCACACAA | -0.0901 |
| AAGTGTCA | -0.226 |
| CAAATGTG | 0.154 |

| Sequence | PBM E-score |
| --- | --- |
| AGGGAGAT | -0.207 |
| AAGTGAAC | -0.16 |
| GTGCTCCA | -0.118 |
| ACAAAAGC | 0.00138 |
| ATGATACC | -0.0306 |
| AACGCTGC | -0.0726 |
| TATCAATA | -0.26 |
| AACCACAC | 0.00031 |
| ATTGGAAA | -0.119 |
| AGTAAAAT | -0.0219 |
| GCCTAACA | -0.038 |
| CAATGCAA | -0.171 |
| GTACCTTA | 0.00273 |
| CGGAGACC | 0.406 |
| CTGACAGA | 0.0452 |
| CTATTAAG | -0.195 |
| AGCCGCCA | 0.143 |
| TCACGGAA | 0.324 |
| AAGCATCC | 0.025 |
